# Out of some 310,000 compounds screened, about 14,000 (4.5%) showed an effect of 50% or more. The effect is printed as a negative number. Some of the results follow.
# Target: human ether-à-go-go-related gene (hERG) potassium channel (human, UniProt Q12809)
# Experiment: primary screen, population patch clamp on CHO cells stably expressing hERG
# 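Note: peak tail current of the secondary pulse compared with the same well before compound.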
# Chain of human ether-à-go-go-related gene (hERG) potassium channel (Q12809 whole entry, looked up): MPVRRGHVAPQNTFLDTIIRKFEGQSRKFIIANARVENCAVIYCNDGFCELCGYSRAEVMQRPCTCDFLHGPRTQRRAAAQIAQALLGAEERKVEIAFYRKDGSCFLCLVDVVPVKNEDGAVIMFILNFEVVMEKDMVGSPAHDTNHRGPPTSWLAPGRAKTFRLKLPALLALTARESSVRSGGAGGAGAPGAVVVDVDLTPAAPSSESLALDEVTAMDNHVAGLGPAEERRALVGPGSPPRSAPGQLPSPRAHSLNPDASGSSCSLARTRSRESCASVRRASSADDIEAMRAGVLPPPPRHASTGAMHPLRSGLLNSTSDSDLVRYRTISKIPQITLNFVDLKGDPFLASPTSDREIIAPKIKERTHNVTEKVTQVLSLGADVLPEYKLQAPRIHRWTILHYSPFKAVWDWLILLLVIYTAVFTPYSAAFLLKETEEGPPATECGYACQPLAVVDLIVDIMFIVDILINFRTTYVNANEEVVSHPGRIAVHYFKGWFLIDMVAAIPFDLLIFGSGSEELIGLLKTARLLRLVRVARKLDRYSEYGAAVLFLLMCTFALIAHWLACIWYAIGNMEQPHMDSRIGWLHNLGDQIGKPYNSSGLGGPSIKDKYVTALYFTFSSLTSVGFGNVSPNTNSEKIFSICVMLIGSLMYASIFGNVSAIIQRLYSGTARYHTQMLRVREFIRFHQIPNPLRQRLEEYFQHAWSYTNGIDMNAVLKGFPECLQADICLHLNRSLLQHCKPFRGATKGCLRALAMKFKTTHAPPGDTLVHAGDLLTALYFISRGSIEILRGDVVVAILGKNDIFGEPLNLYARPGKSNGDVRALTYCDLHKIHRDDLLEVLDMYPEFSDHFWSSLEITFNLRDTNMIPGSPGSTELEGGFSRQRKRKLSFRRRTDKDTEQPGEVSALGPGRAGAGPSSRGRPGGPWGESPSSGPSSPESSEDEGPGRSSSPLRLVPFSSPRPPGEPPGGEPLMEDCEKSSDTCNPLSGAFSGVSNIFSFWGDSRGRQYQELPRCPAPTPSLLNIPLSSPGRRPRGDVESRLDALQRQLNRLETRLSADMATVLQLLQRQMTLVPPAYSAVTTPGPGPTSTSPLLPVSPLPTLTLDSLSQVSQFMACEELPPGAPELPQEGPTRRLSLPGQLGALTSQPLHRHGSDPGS
row,SMILES,"hERG current change (%, negative = inhibition) at 10uM [%]"
1,O=C(Cn1cc(C(F)(F)F)ccc1=O)Nc1cccc(S(=O)(=O)N2CCOCC2)c1,-16.7
2,COc1ccc(CCNC(=O)c2c(C)nn(-c3ccccc3)c2Cl)cc1,0.818
3,N#CC1=C(N)Oc2cc(N)ccc2C1C1CC=CCC1 (centres unmarked),-10.7
4,OCC1(Cc2ccc(Cl)cc2)CCN(CC2CC=CCC2)CC1 (centres unmarked),-76.7
5,O=C(NCCC1=CCCCC1)C1CCC(=O)N(Cc2ccc(Cl)cc2)C1 (centres unmarked),-2.34
6,NC(=O)CCC(=O)N1CCCC(C(=O)c2ccc(C(F)(F)F)cc2)C1 (centres unmarked),1
7,CCC(CC)c1nnc(NC(=O)CN2C(=O)NC3(CCCC3)C2=O)s1,36.8
8,COc1cccc(C(C)NC(=O)C2CCCO2)c1 (centres unmarked),5.03
9,Cc1ccc(-n2nnnc2SCC(=O)NNC(=O)c2ccc([N+](=O)[O-])cc2)cc1,3.99
10,CC(C)Oc1ccc(Cn2c(=O)oc3ccccc32)cc1,20.4
11,COc1cc(C#Cc2ccc3cc(CCCO)oc(=O)c3c2)cc(OC)c1,7.23
12,O=C(c1ccc(N2CCN(C(=O)c3ccccc3)CC2)cc1)c1cccc(F)c1,-74.5
13,COc1ccc(/C=C/C(=O)c2c(O)n(CCC3=CCCCC3)c(=O)[nH]c2=O)cc1,5.59
14,O=C(NNc1nc2cc3c(cc2s1)OCO3)c1ccccc1,4.16
15,Cc1ccc(C(=O)Nc2ccccc2C(=O)N2CC3(C)CC2CC(C)(C)C3)cc1 (centres unmarked),-28.7
16,Cc1ccc(Oc2nc3ccccn3c(=O)c2/C=C(\C#N)C(=O)NC2CCS(=O)(=O)C2)cc1 (centres unmarked),-6.31
17,O=C(COC(=O)c1cncc(Br)c1)NC1CC1,2.81
18,Cc1cc(C)c(S(=O)(=O)N(C)CC(=O)NCCCn2ccnc2)c(C)c1,-19.9
19,COc1cccc(/C=N/NC(=O)c2ccoc2C)c1O,-12.4
20,COc1ccc2cc(-c3ccsc3)ncc2c1,9.17

row,SMILES,"hERG current change (%, negative = inhibition) at 10uM [%]"
1,Cn1c2c(c(=O)n(C)c1=O)C(CC(=O)Nc1ccccc1)C(=O)N2 (centres unmarked),2.49
2,CCc1nn(CC(=O)NCCCN(C)Cc2ccccc2)c(=O)c2cc3sc(C)cc3n12,-69.9
3,Cc1ccccc1OCC(O)CN1CCC(C)CC1.Cl (centres unmarked),-34.1
4,CN(C)CCNC(=O)C1(O)c2cc(Br)ccc2NC(=O)N1c1ccc(Cl)cc1 (centres unmarked),12.2
5,C/C(CCc1ccc2c(c1)OCO2)=N\NC(=S)NC(C)C,-59.4
6,Cc1ccc(NC(=O)C2CCCN2C(=O)NC2CCCCC2)cc1 (centres unmarked),8.72
7,Cc1cc(C(=O)NCC(=O)O)c(C)o1,0.446
8,Cc1ccccc1-c1nnn(CC(=O)N(C)CC(=O)Nc2ccccc2C(F)(F)F)n1,-7.48
9,CC(C)(C)P(=O)(CO)c1ccccc1 (centres unmarked),2.45
10,Cc1ccc(OCC(=O)c2cc(C)c(C)cc2C)c([N+](=O)[O-])n1,7.87
11,Cc1ccnc(N(C(=O)Nc2ccccc2)C2=NCC(C)(C)S2)c1,17.5
12,CCN1C(=O)C(CC(=O)Nc2ccc(OC)cc2)N(Cc2cccnc2)C1=S (centres unmarked),-2.39
13,COc1cccc(C(=O)Nc2ccc3c(c2)OCO3)c1OC,12.1
14,Cc1nc2ncnn2c(C)c1CCC(=O)NCc1ccc2c(c1)OCO2,-18.2
15,O=C1CCC([N+](=O)[O-])C(c2ccccc2C(F)(F)F)N1 (centres unmarked),6.42
16,CCOc1ccccc1C(=O)NCC(=O)NCC(C)(C)N1CCOCC1,-5.64
17,Cc1ncc(CO)c(CO)c1O.Cl,8.03
18,Fc1ccc(CSc2nc3ncccc3[nH]2)cc1,-0.198
19,O=C1CCC(=O)N1CNc1cccnc1,-8.73
20,CCOc1ccccc1NC(=O)COC(=O)CNS(=O)(=O)c1ccc(C)cc1,17.8

row,SMILES,"hERG current change (%, negative = inhibition) at 10uM [%]"
1,O=C(Cn1c(=O)n(CC(=O)NCc2ccccc2)c2ccccc21)NCc1ccccc1,7.83
2,Cc1cc(S(=O)(=O)Nc2ccc(N(C)C)cc2)c(C)s1,0.71
3,N#Cc1ccc(NC(=O)Nc2ccc(Cl)cc2)cc1,10.7
4,COc1ccccc1C(CNC(=O)C1COc2ccccc2O1)N1CCCC1 (centres unmarked),-11
5,Cc1cccc(OCc2nc(C#N)c(N3CC(C)CC(C)C3)o2)c1 (centres unmarked),-25.3
6,[Cl-].c1ccc(COc2ccc(-c3sc(Nc4ccccc4)n[n+]3-c3ccccc3)cc2)cc1,-43.9
7,Cc1ccc(S(=O)(=O)Cc2c(C)noc2C)cc1,0.933
8,CCN(CC)C(=O)C1CCC(CNS(=O)(=O)c2cccc3nsnc23)CC1 (centres unmarked),2.47
9,CCNC(=O)c1cc(Cl)ccc1OC,-4.12
10,Cl.Clc1ccc(CNCCC2=CCCCC2)cc1,-40
11,CCN1CCN(C(=O)C2CCC(CNS(=O)(=O)c3ccc(NC(C)=O)cc3)CC2)CC1 (centres unmarked),23.6
12,Cc1ccc(/C=C(\C#N)C(=O)NCc2ccco2)o1,3.84
13,CCOc1ccc(N2CC(C(=O)Nc3ccccc3C(=O)N3CCOCC3)CC2=O)cc1 (centres unmarked),7.52
14,S=C(NCCCN1CCOCC1)N1CCN(c2nc(-c3ccc(Cl)cc3)cs2)CC1,-5.86
15,COc1cc2c(cc1OC)C(c1ccccc1)N(C(=O)CCl)CC2 (centres unmarked),7.27
16,O=C(O)C1CCC(NSc2ccccc2[N+](=O)[O-])CC1 (centres unmarked),16.3
17,Cn1c2ccccc2c2ncn(Cc3ccc(F)cc3)c(=O)c21,8
18,CC(C)C(=O)Nc1cccc(NC(=O)c2cccc(Br)c2)c1,-52.1
19,COc1ccc(OC)c(C2=NOC(C(=O)NCc3ccco3)C2)c1 (centres unmarked),6.17
